# Measured values published in ChEMBL document CHEMBL4888484, “Replenishing the malaria drug discovery pipeline: Screening and hit evaluation of the MMV Hit Generation Library 1 (HGL1) against asexual blood stage Plasmodium falciparum ,using a nano luciferase reporter read-out” (2022).
# “And” between values parts separate entries of the source, which are not always exact repeats. Equal entries are not always repeated. Out of some 150,000 compounds screened, about 540 (0.36%) showed an effect of 50% or more. This is one part of the list.
# Test system: Plasmodium falciparum
# Test: Primary screen in NF54 nanoGlo assay, in single point, at 2uM, 72h; a lower Z score goes with more inhibition
# Assay type: functional, Erythrocyte
# Settings: timepoint 72 hour
Structure (SMILES),% Inhibition [%],Z score,% Inhibition (2 µM)
COc1ccc(N2CCN(C3CCCCC3NS(=O)(=O)c3ccccc3)CC2)cc1 (centres undefined),-13,1.46,
CN(Cc1ccccc1)Cc1nnc2sc(-c3ccc4ccccc4n3)nn12,-6,1.07,
NC(=O)C[C@H]1COCCN1C(=O)c1csc2c1CCCC2,1,-0.13,
CC1=NN(Cc2ccccc2)C(=O)[C@H]1C(=O)Cn1nnc2ccccc21,-3,0.44,
C[C@H]1CCCCN1C(=O)c1ccc(NC(=O)c2cn(C(C)(C)C)nn2)cc1,-10,0.92,
OCCNc1nc([C@H]2CCOC2)cc(N2CCN(c3ccncc3)CC2)n1,-5,0.71,
CCNC(=O)Nc1ccc(N(C)C)c(CN(C(=O)C(CC)CC)C2CCCCC2)c1,-13,2,
O=C(Cn1ncc(-c2ccccc2)nc1=O)Nc1ccccc1C(F)(F)F,8,-1.05,
O=C(CCc1ccc(F)c(F)c1)N(Cc1ccccc1)CC1(O)CCCC1,-1,0.11,
CN(C)c1nc(CNc2cc(Cl)ccc2N2CCC(CO)CC2)ns1,-2,0.47,
CC(C)(C)[C@H](NS(C)(=O)=O)C(=O)N1Cc2ccccc2C2(CC2)C1,-6,1.23,
CNC(=O)CNC(=O)c1cc(C)oc1C,-40,4.7,
CC(=O)N1CCO[C@H](C(=O)Nc2cc(N3CCCC3=O)ccc2F)C1,-4,0.59,
CN(C)c1cc(C(=O)N2CCC3OCCCC3C2)ccn1 (centres undefined),-11,1.47,
Cc1cc(S(=O)(=O)[C@H]2CS(=O)(=O)C[C@@H]2N2CCc3ccccc3C2)ccc1F,-2,0.26,
Oc1ccc(OCc2ccccc2)cc1-c1c[nH]nc1-c1ccco1,,,13% and -4%
CCOc1ccc(NC(=O)N(CCCN(C)c2ccccc2)Cc2cccn2Cc2ccc(Cl)cc2)cc1,-3,0.54,
CC1(C)CCN(C(=O)c2cc(Cc3ccccc3)n[nH]2)CC1,-1,0.23,
Cc1ncsc1CN1CC[C@H](n2cc(COCc3ccccc3)nn2)C1,-6,0.83,
CN1CCN(C(=O)C(c2ccccc2)c2ccccc2)[C@H]2CS(=O)(=O)C[C@H]21,5,-0.51,
COCc1n[nH]c(-c2cccc3nc(C)ccc23)n1,-4,0.66,
CN(CCc1noc(C2CC2)n1)C(=O)[C@H](N)c1ccccc1,3,-0.37,

Structure (SMILES),% Inhibition [%],Z score,% Inhibition (2 µM)
CCc1cc(N2CCCC2C(=O)N(C)C)nc(CN2CCCC2C(=O)N(C)C)n1 (centres undefined),2,-0.14,
CCc1nc(CC(=O)O[C@H]2CCN(CCF)C2)cs1,-2,0.24,
Cn1nccc1C(=O)N1CCC(CC2CC2)(NS(C)(=O)=O)CC1,-7,1.29,
O=C1Cc2ccc(NS(=O)(=O)c3ccc4c(c3)NC(=O)CO4)cc2N1,0,0.06,
O=C(O)c1cnc2c(Cl)c(Cl)ccc2c1O,-2,0.27,
O=C(Cn1c(=O)ccc2cc(S(=O)(=O)N3CCCC3)ccc21)N1CCN(c2ncccn2)CC1,-6,0.77,
C#CCN(C)C(=O)c1ccc(Cl)cc1C,-12,1.74,
Cc1ccccc1S(=O)(=O)Cc1nc(N(C)C)no1,-2,0.26,
O=C(C1CCCCN1Cc1ccncc1)N1CCOC2CCCCC21 (centres undefined),1,-0.23,
O=C(N[C@H]1CCS(=O)(=O)C1)c1ccccc1NC(=O)c1nsc2ccccc12,-3,0.46,
CC1(C)C[C@H](NCCCNC(=O)c2cccc(O)c2)C(C)(C)O1,0,-0.03,
CCc1nc(N2CCC[C@H](CNC(=O)c3ncccc3C)C2)no1,-9,1.85,
NC(=O)c1ccncc1NC(=O)C1CC1c1ccco1 (centres undefined),-3,0.56,
CN=C(NCc1cccc(OC)c1OC1CCCC1)NC[C@H](C)C#N,0,0.03,
Cc1ccc(N2C[C@@H](c3nnc(NC(=O)Cc4ccc(Cl)cc4)o3)CC2=O)cc1,32,-4.32,
Cc1nnc(N2CCC(c3nc4c(s3)CCC4)CC2)nc1C,-10,1.92,
Cc1nccn1-c1ncc(NC(=O)c2ccccc2F)cn1,-12,1.86,
Cc1nc([C@@H]2CCCCCN2C(=O)Cc2cccc(F)c2)no1,-17,1.42,
O=C(Cc1c[nH]c2ccccc12)NC1(C(=O)N2CC(O)C2)CCCC1,10,-0.98,
CN(CC(=O)Nc1ccc(Cl)cc1F)C1C2CCOC2C1(C)C (centres undefined),-7,1.13,
Cn1c(C(=O)NCCCN2CCCC2=O)cc2c1CCN(Cc1ccccc1)C2,-12,1.41,
CC[C@@]1(C)CC(=O)N(Cc2nnn(C)n2)C1=O,1,-0.13,

Structure (SMILES),% Inhibition [%],Z score,% Inhibition (2 µM)
Cc1cc(COc2cccc(S(C)(=O)=O)c2)on1,5,-0.49,
CCCCN1C(=O)CC[C@@H]2CN(C(=O)c3ncoc3C3CC3)CC[C@@H]21,1,-0.23,
CN(Cc1ccccc1Cn1cccn1)Cc1nncn1C,1,-0.18,
O=C1CN(C(=O)c2ccc(Cl)o2)c2ccccc2N1,-3,0.39,
C[C@H](O)CCNc1ccc(Br)cc1C#N,-4,0.53,
CC(C)(C)NC(=O)N(Cc1ccc(F)cc1)C[C@H]1CC(c2ccccc2)=NO1,-27,2.41,
CCCNC(=O)c1coc(CN2CCN(Cc3ccccc3C(F)(F)F)CC2)n1,-11,2.2,
CC1CCCC(NC2CCN(Cc3ccccc3)CC2)C1 (centres undefined),-7,1.38,
Cc1cc(NC(=O)CN2CCN(S(=O)(=O)c3ccc(F)cc3)CC2)on1,-3,0.43,
CCNc1nc(C(N)=O)c(NC(=O)c2cc(-c3ccccc3)nc3ccccc23)s1,-9,1.27,
CC[C@H](O)Cn1nnnc1Cc1cc(Br)ccc1OC,-10,1.06,
Cc1ccc(CNC(=O)[C@H]2CCCN(C(=O)c3nnc(C(=O)Nc4ccc5c(c4)OCO5)s3)C2)cc1,-27,2.39,
Cc1cccc(NC(=O)CC(=O)NCCCc2c(C)n[nH]c2C)c1C,13,-2.52,
O=C(Nc1ccc(N2CCN(C(=O)C3CCCC3)CC2)nc1)c1ccc(F)cc1F,-1,0.22,
Cn1nc(C(=O)N2CC(OCC(F)(F)F)C2)ccc1=O,-11,1.69,
Cc1nn(C)c(C)c1CN[C@H]1CS(=O)(=O)C1(C)C,8,-1.66,
C[C@](O)(CNC(=O)c1ccc(-c2ccsc2)cc1)c1ccc2c(c1)OCO2,-11,1.97,
Cn1nnc2c(N3CCN(S(=O)(=O)c4cccnc4)CC3)ncnc21,-5,0.79,
Cc1ccc(Cl)cc1N1CCN(C(=O)c2ccc3c(c2)CCN3S(=O)(=O)c2ccccc2)CC1,-7,1.29,
COc1cc2c(cc1OC)CN(c1ncnc3[nH]ncc13)CC2,3,-0.28,
Cc1nc(NC2CCCCC2)sc1C(=O)Nc1ccccc1,1,-0.19,
CC(C)c1sc(NC(=O)N2CC[C@H](O)C2)nc1-c1ccccc1,1,-0.11,

Structure (SMILES),% Inhibition [%],Z score,% Inhibition (2 µM)
CC(=O)Nc1cccc(-c2ncnc3sccc23)c1,-4,0.47,
CCN(Cc1ccc(OC)c(OC)c1)C(=O)c1cccc(NS(=O)(=O)c2ccccc2)c1,-6,0.92,
OCc1ccccc1-c1nccc2occc12,-10,0.95,
CCC(CC)(CO)CNC(=O)c1ccc2c(c1)COCO2,-1,0.16,
COC[C@H]1CCCN1C(=O)c1cc(C)oc1-c1ccccc1,1,-0.26,
CCN1CCC[C@@H]1CNC(=O)c1ccccn1,-9,1.01,
CCc1nccc(-c2nccn2Cc2cnn(CC)c2)n1,4,-0.53,
Cc1c(C)n(Cc2ccccc2)c2ccc(C(=O)N3CCc4ccccc4C3)cc12,8,-1.01,
CC(C)(C)c1cc2n(n1)CCN(CCOc1cccc(C(=O)O)c1)C2,-2,0.45,
O=C1C[C@H](NC(=O)c2cc3n(n2)CCCO3)CN1,-10,1.49,
CCCOCC(=O)NC[C@H](O)c1c(Cl)cccc1Cl,3,-0.26,
O=C(Nc1ccc(C(F)(F)F)cc1)c1cn(C[C@H](O)c2cccs2)nn1,-5,0.91,
C[C@H](O)CNC(CC1CCN(C(=O)OC(C)(C)C)CC1)c1cccnc1 (some centres undefined),-12,1.62,
O=C(NCCN1CCOCC1)c1cc2cn(C3CCCC3)cc2s1,-2,0.47,
Cc1ccc(S(=O)(=O)N2CCN(C(=O)Cc3ccc(S(=O)(=O)N4CCOCC4)s3)CC2)cc1,-7,0.77,
Cc1cc(CN(C)C(=O)Cn2ncc(N3CCc4ccccc4C3)cc2=O)on1,10,-0.93,
Cc1ccc(-c2nnc(C)c(N3CCCCC3)n2)cc1,-2,0.38,
Cc1nnc(N[C@@H](C)CCc2ccccc2)c(C#N)c1C,-7,1.39,
Cc1cnn(CCC(=O)N2CCC([C@H]3[C@@H](Oc4ccccc4)CN3C(C)C)CC2)c1,3,-0.31,
